Reference: PubChem BioAssay (NCATS)
Inconclusive results, whose numbers are uncertain, are shown with a selection of clear calls. Where the call is inconclusive, the potency comes from a doubtful curve fit. Calls of active or inactive are those of the source. Calls follow the shape of the dose curve; as a rule, active = well fitted curve in the direction sought with a large enough effect; inconclusive = small, poorly fitted or top-dose-only effect, or another doubt; inactive = no such curve, though single readings can be large; an effect the other way counts as inactive or inconclusive.

Columns and labels:
[1] = target: Rap guanine nucleotide exchange factor 3 (Homo sapiens) (UniProt O95398); assay: Confirmatory qHTS for agonist of cAMP-regulated guanine nucleotide exchange factor 3 (EPAC1) (AID 1645881); conditions: EPAC1 Rap1B BODIPY-GDP exchange fluorescence; activation: at 154 µM (top of the series), 100% = cAMP control response; also: nearly all actives have a fitted effect of over 75% in size;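 as to activation: EPAC1 catalysed release of BODIPY-GDP from Rap1B seen as fluorescence loss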
UniProt O95398, sequence (O95398 whole entry, looked up): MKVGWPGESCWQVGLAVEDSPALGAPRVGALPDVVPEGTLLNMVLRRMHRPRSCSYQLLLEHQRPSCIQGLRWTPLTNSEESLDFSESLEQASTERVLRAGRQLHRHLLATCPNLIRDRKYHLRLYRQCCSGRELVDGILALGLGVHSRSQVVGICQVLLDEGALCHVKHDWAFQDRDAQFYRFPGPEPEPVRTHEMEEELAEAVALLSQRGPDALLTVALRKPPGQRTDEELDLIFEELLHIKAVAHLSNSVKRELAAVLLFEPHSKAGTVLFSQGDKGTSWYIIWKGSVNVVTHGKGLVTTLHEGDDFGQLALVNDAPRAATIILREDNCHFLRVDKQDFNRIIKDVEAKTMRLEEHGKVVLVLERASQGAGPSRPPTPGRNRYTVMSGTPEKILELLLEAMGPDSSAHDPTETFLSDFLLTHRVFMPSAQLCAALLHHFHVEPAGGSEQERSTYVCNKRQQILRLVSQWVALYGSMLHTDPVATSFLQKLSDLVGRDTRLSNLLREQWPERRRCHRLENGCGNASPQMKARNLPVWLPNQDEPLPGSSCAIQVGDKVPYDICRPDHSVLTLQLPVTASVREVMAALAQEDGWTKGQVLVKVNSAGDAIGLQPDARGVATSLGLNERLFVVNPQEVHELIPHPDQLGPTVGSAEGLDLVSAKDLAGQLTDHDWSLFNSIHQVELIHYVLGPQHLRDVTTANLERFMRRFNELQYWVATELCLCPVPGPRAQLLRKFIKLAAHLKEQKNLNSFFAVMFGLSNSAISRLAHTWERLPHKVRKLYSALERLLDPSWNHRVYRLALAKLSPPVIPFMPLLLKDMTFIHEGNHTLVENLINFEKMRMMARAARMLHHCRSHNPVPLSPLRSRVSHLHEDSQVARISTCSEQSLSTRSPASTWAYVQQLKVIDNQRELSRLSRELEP

[2] = target: Rap guanine nucleotide exchange factor 3 (Homo sapiens) (UniProt O95398); assay: Counterscreen qHTS for agonist of cAMP-regulated guanine nucleotide exchange factor 3 (EPAC1) (AID 1645889); conditions: EPAC1 Rap1B-BODIPY-GDP exchange, fluorescence; activation: at 154 µM (top of the series) unless noted; also: nearly all actives have a fitted effect of over 40% in size; as to activation: % of control where 0% means no effect
Summary of the method: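 Rap1B–BODIPY-GDP (250 nM) with 50 uM GDP; compounds pin-transferred to 9.74 nM–152 uM final (activator) or from 7.32 nM upwards (inhibitor). Fluorescence Ex/Em 480/540 nm read at 5 and 30 min, then after adding cAMP or buffer, at room temperature.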
Potency is read from the fitted curve at half-maximal effect; tags tell the direction and shape of the fitted curve.

Row | SMILES | Potency [1] | Potency [2] | activation [2] | activation [1]
1 | O=C(OCCN1C(=O)c2cccc3c(N4CCOCC4)ccc(c23)C1=O)c1ccccc1Cl | inconclusive: 126 µM [activator, partial curve, poor fit] | active: 11.2 µM | – | –
2 | CCOc1ccc(NC(=O)/C(C#N)=C/c2ccc(N3CCCC3)c(C)c2)cc1 | inconclusive: 112 µM [activator, partial curve, poor fit] | inconclusive: 5.01 µM [activator, partial curve, poor fit] | – | –
3 | N#CCC(=O)Nc1sc2c(c1C(N)=O)CCCC2 | inactive | – | inconclusive: 57.8% [activator] [at 30.8 µM] | –
4 | Cc1[nH]c2ccccc2c1C(c1ccccc1)c1ccc(Cl)s1 (stereo not given) | inconclusive: 158 µM [activator, single point] | inactive | – | –
5 | Cc1ccc(S(=O)(=O)C2(C(=O)Nc3ccc(Br)cc3)CC2)cc1 | inconclusive: 44.7 µM [activator, partial curve, poor fit] | inconclusive: 0.01 µM [activator, full curve, poor fit] | – | –
6 | COC(=O)c1ccc2nc(-c3ccccc3)c(Cc3cccc(F)c3)n2c1 | inconclusive: 56.2 µM [activator, partial curve, poor fit] | – | inconclusive: 53.4% [activator] [at 30.8 µM] | –
7 | O=C(/C=C/c1ccc(N2CCOCC2)cc1)c1ccccc1 | inconclusive: 70.8 µM [activator, partial curve, poor fit] | inactive | – | –
8 | CCOC(=O)N1CCc2c(sc3c2c(=O)n(-c2ccc(F)cc2)c(=O)n3CC(=O)c2ccc(Cl)cc2)C1 | inconclusive: 100 µM [activator, partial curve] | inconclusive: 7.08 µM [activator, partial curve, poor fit] | – | –
9 | CN1/C(=C/C=C(C#N)C#N)C(C)(C)c2ccccc21 | inconclusive: 100 µM [activator, partial curve, poor fit] | – | inactive: -347% [at 30.8 µM] | –
10 | Cc1cccc(-c2nc3nc(C)cc(NCc4ccccc4Cl)n3n2)c1 | inconclusive: 112 µM [activator, partial curve, poor fit] | inconclusive: 20 µM [activator, partial curve] | – | –
11 | CCN(CC)c1ccc2cc(-c3nc(-c4cccs4)no3)c(=O)oc2c1 | active: 100 µM | active: 79.4 µM | – | –
12 | O=C(O)CCCCCN1C(=O)/C(=C/c2cn(-c3ccccc3)nc2-c2cccs2)SC1=S | active: 79.4 µM | active: 14.1 µM | – | –
13 | COc1ccc(C)cc1CN1C(=O)c2ccccc2C1=O | inconclusive: 112 µM [activator, single point] | – | inactive: 12.1% [at 30.8 µM] | –
14 | CN(Cc1ccccc1N1CCCC1)C(=O)c1cc2ccccc2o1 | inactive | – | inactive: 17.8% [at 30.8 µM] | –
15 | CCc1cccc(CC)c1N1C(=O)C2=C(SCCCS2)C1=O | inconclusive: 79.4 µM [activator, single point] | inconclusive: 112 µM [activator, single point] | – | –
16 | COC(=O)c1cc2oc(C)cc2n1Cc1cc(C)ccc1C | inconclusive: 126 µM [activator, partial curve, poor fit] | – | inconclusive: 27.9% [activator] | –
17 | COc1ccc(C(=O)/C=C/c2ccc(N(C)C)cc2)c(OC)c1 | – | – | inconclusive: 59.3% [activator] | inconclusive: 31.3% [activator]
18 | COc1cc(CNc2ccc(O)cc2)cc(Br)c1OCc1ccccc1 | inactive | inactive | – | –
19 | CC(OC(=O)/C(C#N)=C/c1ccc(N(C)C)cc1)C(=O)N(C)Cc1ccccc1 (stereo not given) | inconclusive: 89.1 µM [activator, partial curve, poor fit] | inconclusive: 7.08 µM [activator, partial curve] | – | –
20 | NC(=O)C1CCN(C(=O)Nc2csc3ccccc23)CC1 | inactive | – | inconclusive: 59.6% [activator] | –
21 | O=C(Nc1ccccc1N1CCOCC1)c1cccc2c(Br)cccc12 | inactive | inconclusive: 15.8 µM [activator, partial curve, poor fit] | – | –
22 | COC(=O)c1c(SC)nc2ccccc2c1OCc1ccc(C)cc1C | inconclusive: 158 µM [activator, single point] | inactive | – | –
23 | Cc1ccc(-c2sc(-c3ccccc3)nc2CC(=O)Nc2ccccc2F)cc1 | inactive | inconclusive: 0.0089 µM [activator, full curve, poor fit] | – | –
24 | CN1CCc2c(sc(NC(=O)CSc3ccccc3)c2-c2nc3ccccc3s2)C1 | inconclusive: 141 µM [activator, partial curve, poor fit] | inconclusive: 112 µM [activator, single point] | – | –
25 | COc1cc2cncc(Cc3ccc(Cl)cc3)c2cc1OC | inactive | inactive | – | –
